Where a chain is given by its changes, count along the chain named. The list shows a part of the results.
T1: RBFOX1 RRM RbFoxmut (Fox-RRM*) (Homo sapiens, UniProt Q9NWB1 109-208, R118D;E147R;N151S;E152T)
T1 sequence: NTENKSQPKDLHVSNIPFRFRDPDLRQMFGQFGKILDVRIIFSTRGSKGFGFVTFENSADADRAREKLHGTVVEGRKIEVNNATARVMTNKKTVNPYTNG

B1: GGUCGAG (DNA:RNA)
RNA: GGGAGACCGGAAUUCAGAUUGUCCGGUCGAGUUAAAUCCCGUCGUAGCCACCA
DNA 1: CAATCTGAATTCCGGTCTCCC
DNA 2: TGGTGGCTACGACGGGATT
B2: GCCCGAU (DNA:RNA)
RNA: B1 RNA with G26C, U27C, G31U
DNA 1: CAATCTGAATTCCGGTCTCCC
DNA 2: TGGTGGCTACGACGGGATT
B3: AUAUCUU (DNA:RNA)
RNA: GGGAGACCGGAAUUCAGAUUGUCCAUAUCUUUUAAAUCCCGUCGUAGCCACCA
DNA 1: CAATCTGAATTCCGGTCTCCC
DNA 2: TGGTGGCTACGACGGGATT
B4: GUACUGG (DNA:RNA)
RNA: B1 RNA with G26U, U27A, G29U, A30G
DNA 1: CAATCTGAATTCCGGTCTCCC
DNA 2: TGGTGGCTACGACGGGATT
B5: UACUACG (DNA:RNA)
RNA: B3 RNA with A25U, U26A, A27C, C29A, U30C, U31G
DNA 1: CAATCTGAATTCCGGTCTCCC
DNA 2: TGGTGGCTACGACGGGATT
B6: UCAACUU (DNA:RNA)
RNA: B3 RNA with A25U, U26C, U28A
DNA 1: CAATCTGAATTCCGGTCTCCC
DNA 2: TGGTGGCTACGACGGGATT
B7: UUCCCGU (DNA:RNA)
RNA: B3 RNA with A25U, A27C, U28C, U30G
DNA 1: CAATCTGAATTCCGGTCTCCC
DNA 2: TGGTGGCTACGACGGGATT
B8: UUUCUUA (DNA:RNA)
RNA: B3 RNA with A25U, A27U, U28C, C29U, U31A
DNA 1: CAATCTGAATTCCGGTCTCCC
DNA 2: TGGTGGCTACGACGGGATT
B9: UAUUAUG (DNA:RNA)
RNA: B3 RNA with A25U, U26A, A27U, C29A, U31G
DNA 1: CAATCTGAATTCCGGTCTCCC
DNA 2: TGGTGGCTACGACGGGATT

target: T1, RBFOX1 RRM RbFoxmut (Fox-RRM*); test: EMSA; HiTS-Eq, 1 nM pool, 10 min; buffer printed only for the single-RNA assays: 10 mM Tris pH 7.5, 150 mM NaCl, 3.4 mM EDTA, 0.001% NP-40, 30 C; details: tags: His6 N-terminal (pET28a); label: 5' 32P
Outline: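 Purified RbFox RRM, wild type or mutant, was incubated for 10 min in 50 µL with 1 nM of a 5′-radiolabelled RNA pool carrying 7 randomized nucleotides, whose flanks were annealed to DNA oligonucleotides, over a series of increasing protein concentrations. Unbound RNA was resolved on 8% native PAGE, cut out, reverse-transcribed, barcoded by PCR and sequenced on an Illumina HiSeq 2500. Relative association constants were derived from changes in read counts for each RNA species versus the control reaction and normalised to the cognate motif.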

Row | Binder | binding signal
1 | B1 | 0.103 KA relative to UGCAUGU
2 | B2 | 0.0816 KA relative to UGCAUGU
3 | B3 | 0.0976 KA relative to UGCAUGU
4 | B4 | 0.0747 KA relative to UGCAUGU
5 | B5 | 0.101 KA relative to UGCAUGU
6 | B6 | 0.0738 KA relative to UGCAUGU
7 | B7 | 0.0646 KA relative to UGCAUGU
8 | B8 | 0.0979 KA relative to UGCAUGU
9 | B9 | 0.158 KA relative to UGCAUGU
